The whole screen tested about 310,000 compounds, of which about 14,000 (4.5%) showed an effect of 50% or more. The effect is printed as a negative number. This is one part of the list.
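Further: peak tail current of the secondary pulse compared with the same well before compound.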

Chain of human ether-à-go-go-related gene (hERG) potassium channel (Q12809 whole entry, looked up): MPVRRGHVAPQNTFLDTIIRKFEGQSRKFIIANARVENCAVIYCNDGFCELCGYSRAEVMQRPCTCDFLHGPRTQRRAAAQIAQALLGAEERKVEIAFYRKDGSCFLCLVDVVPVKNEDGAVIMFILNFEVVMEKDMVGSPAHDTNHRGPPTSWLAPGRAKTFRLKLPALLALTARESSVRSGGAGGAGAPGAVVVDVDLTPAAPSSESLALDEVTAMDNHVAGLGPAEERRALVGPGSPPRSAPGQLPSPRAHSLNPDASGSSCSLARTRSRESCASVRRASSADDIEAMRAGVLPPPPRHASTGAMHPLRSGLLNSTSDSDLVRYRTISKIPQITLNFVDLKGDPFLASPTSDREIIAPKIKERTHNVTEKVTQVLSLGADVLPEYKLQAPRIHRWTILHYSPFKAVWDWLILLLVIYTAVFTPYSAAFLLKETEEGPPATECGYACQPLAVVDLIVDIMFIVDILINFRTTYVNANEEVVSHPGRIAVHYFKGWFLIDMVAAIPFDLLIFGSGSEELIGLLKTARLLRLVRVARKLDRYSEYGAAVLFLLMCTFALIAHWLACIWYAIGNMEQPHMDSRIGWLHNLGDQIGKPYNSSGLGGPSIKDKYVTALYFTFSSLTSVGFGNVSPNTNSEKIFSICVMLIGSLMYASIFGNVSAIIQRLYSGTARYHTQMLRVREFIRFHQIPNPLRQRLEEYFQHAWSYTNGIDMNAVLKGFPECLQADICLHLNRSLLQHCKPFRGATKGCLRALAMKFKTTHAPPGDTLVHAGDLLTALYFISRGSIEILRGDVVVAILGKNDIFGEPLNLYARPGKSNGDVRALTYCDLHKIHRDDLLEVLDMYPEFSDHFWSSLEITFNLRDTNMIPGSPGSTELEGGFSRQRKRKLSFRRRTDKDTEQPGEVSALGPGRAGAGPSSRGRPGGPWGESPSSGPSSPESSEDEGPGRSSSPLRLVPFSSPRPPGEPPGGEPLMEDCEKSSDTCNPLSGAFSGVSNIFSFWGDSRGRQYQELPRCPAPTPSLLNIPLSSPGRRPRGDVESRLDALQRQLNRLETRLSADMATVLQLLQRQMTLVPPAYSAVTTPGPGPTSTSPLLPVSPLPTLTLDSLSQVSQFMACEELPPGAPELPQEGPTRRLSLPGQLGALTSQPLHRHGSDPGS

This experiment addresses human ether-à-go-go-related gene (hERG) potassium channel (human, UniProt Q12809). Nature of the experiment: primary screen, population patch clamp on CHO cells stably expressing hERG.
As for `Cc1ccc(/C=N/n2c(C)nc3ccccc3c2=O)o1`, the “hERG current change (%, negative = inhibition) at 10uM” value came to 10.9%. With `CCC(C)NC(=O)[C@H](CSCc1ccccc1)N1Cc2ccccc2C1=O` (stereo partly drawn), the “hERG current change (%, negative = inhibition) at 10uM” value is on record as -36.2%. The result for `CC1=CCC2C(=O)N(c3cccc(C(=O)NC(C)c4ccccc4)c3)C(=O)C2C1` (stereo not drawn) reads -4.98%. The result for `C#CCSc1nnc(-c2c[nH]c3ccccc23)n1C` reads 16.3%; that for `CCCC1=C(C(=O)OCC)C(c2ccco2)n2ncnc2N1` (stereo not drawn), 2.43%; that for `CC1CCCCC1NC1=NCCCS1` (stereo not drawn), 18.9%. The result for `Cc1sc(N/N=C/c2cccnc2)nc1-c1ccc(Cl)cc1` reads 13.3%; that for `CC1CN(S(=O)(=O)c2ccc(C(=O)O)cc2)CC(C)O1` (stereo not drawn), 19.3%; that for `O=C(Nc1cccc2c1CCCC2)c1cc([N+](=O)[O-])ccc1Cl`, -9.88%. For `CN(C)Cc1nc2c(c(=O)[nH]1)C(C)(C)Cc1ccccc1-2`, the “hERG current change (%, negative = inhibition) at 10uM” value was -7.33%.

As to `O=C(c1ccccc1)N1CCN(C(=O)c2ccc([N+](=O)[O-])cc2)CC1`, the “hERG current change (%, negative = inhibition) at 10uM” value was -53.9%. Next, `CCCCn1c(O)c(C(CC)=Nc2ccc(OC)cc2OC)c(=O)[nH]c1=O`: -13.8%; `Fc1ccc(-c2noc(-c3ccc4c(c3)CCO4)n2)cc1`: 8.19%.

For the molecule `Cc1ccc2oc(=O)c3cnn(CC(=O)NCCc4ccsc4)c3c2c1`, the “hERG current change (%, negative = inhibition) at 10uM” value is recorded as -12.2%. The result for `Cc1csc(NC(=O)c2ccc3c(=O)n4c(nc3c2)CCCCC4)n1` reads -80.3%. The result for `COc1ccc(C(=O)CN2CCN(c3cc(C)nc4ccccc34)CC2)cc1` reads -68.8%; that for `CC(NC(=O)c1nn(C)c(=O)c2ccccc12)c1ccccc1` (stereo not drawn), -13.1%. The result for `CCOc1cccc(-c2c(C(=O)N/N=C/c3ccc(C)o3)nnn2-c2nonc2N)c1` reads 15.2%. For `COc1ccc(N2C(=O)CCC(C(=O)N(C)CCc3ccccn3)C2c2ccc(OC)c(OC)c2)cc1` (stereo not drawn), the “hERG current change (%, negative = inhibition) at 10uM” value is recorded as -2.28%. Turning to `O=C(CSCC(=O)N1CCCCC1)OCC(=O)c1c[nH]c2ccccc12`, the “hERG current change (%, negative = inhibition) at 10uM” value is on record as -5.48%. The result for `O=C(Nc1ccccc1)c1cccc(N2C(=O)C3C4C=CC(C4)C3C2=O)c1` (stereo not drawn) reads 7.97%. Next, `CCNS(=O)(=O)c1ccc(NC(=O)Nc2ccc3c(c2)OCO3)cc1`: 6.69%. With `Cc1ccc(S(=O)(=O)NCCCNS(=O)(=O)c2ccc(C)cc2)cc1`, the “hERG current change (%, negative = inhibition) at 10uM” value was -17.9%. Next, `COc1ccccc1CN1CC(C(=O)NCCN2CCNC2=O)CCC1=O` (stereo not drawn): 24.2%. On to `COc1cccc(N(CC(=O)NCCSc2ccc(Cl)cc2)S(C)(=O)=O)c1`, for which the “hERG current change (%, negative = inhibition) at 10uM” value is reported as -9.08%.

For `CCc1ccc(OCC2c3cc(OC)c(OC)cc3CCN2C(=S)NC)cc1` (stereo not drawn), the “hERG current change (%, negative = inhibition) at 10uM” value is -10.3%. The result for `Cc1ccc2c(c1)c1nnc(SCC(=O)Nc3cccc(Cl)c3C)nc1n2CC(=O)O` reads 19.6%; that for `COc1cccc(C(=O)Nc2ccc(N3CCCC3)cc2)c1`, 1.2%. Turning to `Cc1cccc(N(C(=O)Nc2ccc(Cl)cc2)C2=NCC(C)S2)n1` (stereo not drawn), the “hERG current change (%, negative = inhibition) at 10uM” value is 8.19%. The result for `COc1cccc(OC)c1OCCNCCO` reads 21.5%. The result for `O=C(NC(=S)Nc1ccccc1Cl)C1CC1` reads 19.7%; that for `COC(=O)CSc1nc(COc2ccccc2)nc2ccccc12`, 9.88%. Next, `CCOc1ccc(N2C(=O)CC(N3CCC(O)(c4ccc(Br)cc4)CC3)C2=O)cc1` (stereo not drawn): -49.1%; `Cc1ccc(S(=O)(=O)NCC(=O)N2CCC(C)CC2)cc1`: -0.855%; `COc1ccc([N+](=O)[O-])cc1NC(=O)C(C)N1CCCC1` (stereo not drawn): 13.3%. Consider `COc1ccccc1OCCNC(=O)c1cccs1`, for which the “hERG current change (%, negative = inhibition) at 10uM” value is reported as 1.32%. The result for `CCOC(=O)c1c(-n2cnnn2)sc2c1CCCC2` reads 8.13%. The result for `Cc1ccc(-n2ncc3c(=O)n(CC(=O)Nc4cccc(Cl)c4)cnc32)cc1C` reads 10.6%. Next, `CCOC(=O)C1(Cc2cccc(OC)c2)CCN(Cc2cccn2-c2nccs2)CC1`: -72%; `CC1CN(C(=O)COC(=O)c2ccc(O)cc2)CC(C)O1` (stereo not drawn): 17.4%; `Cc1cccc(-c2noc(CNC(=O)Nc3ccc(F)cc3)n2)c1`: 8.56%.

For `Cc1ccc(-c2noc(CN(C(=O)CCCCCN3C(=O)c4ccccc4C3=O)C(C)C)n2)cc1`, the “hERG current change (%, negative = inhibition) at 10uM” value is reported as -15.3%.

In the case of `Cc1cc(C)c2[nH]c(=O)c(C(c3nnnn3CC3CCCO3)N3CCCC(C)C3)cc2c1` (stereo not drawn), the “hERG current change (%, negative = inhibition) at 10uM” value is recorded as -12.5%. Next, `COc1ccc(C2c3ccc(O)cc3Oc3ncn4nc(-c5ccco5)nc4c32)cc1OC` (stereo not drawn): 22.8%; `Cc1csc(NC(=O)c2cn3ccccc3n2)n1`: -4.54%.

As to `Cc1nnc(SCC(=O)NC2CCC(C)CC2)s1` (stereo not drawn), the “hERG current change (%, negative = inhibition) at 10uM” value is -6.69%. As to `CC(=O)Nc1c2c(nn1-c1cccc(Cl)c1)CS(=O)C2` (stereo not drawn), the “hERG current change (%, negative = inhibition) at 10uM” value is given as -1.6%. In the case of `O=S1(=O)CCOCCCN1Cc1ccccc1Br`, the “hERG current change (%, negative = inhibition) at 10uM” value was determined as 1.21%.

As to `Nc1nc(NCC2CCCO2)nc(NCC2CCCO2)c1[N+](=O)[O-]` (stereo not drawn), the “hERG current change (%, negative = inhibition) at 10uM” value was -10.7%.

Take `O=S(=O)(c1ccc(-c2nnc(SCc3ccccc3)o2)cc1)N1CCCC1`: the “hERG current change (%, negative = inhibition) at 10uM” value was -3.26%.

With `Cc1cc(OCC(=O)NC2CCS(=O)(=O)C2)c2c3c(c(=O)oc2c1)CCC3` (stereo not drawn), the “hERG current change (%, negative = inhibition) at 10uM” value was -3.87%. Next, `CC(=O)OC[C@]1(OC(C)=O)C[C@@]23CC[C@H]4[C@@](C)(CCC[C@@]4(C)C(=O)O)[C@@H]2CC[C@@H]1C3`: 4.84%; `Cc1c(C(=O)N2CCc3ccccc3C2)oc2ccc(S(=O)(=O)N3CCCCCC3)cc12`: -19.2%; `CCCCCCCCNC1=CC(=O)CC(C)(C)C1`: -48.2%. The result for `O=S(=O)(Nc1ccc(N2CCOCC2)cc1)c1ccc2ccccc2c1` reads 3.3%. The result for `Cc1ccc(S(=O)(=O)c2cnc3cc(C)nn3c2N)cc1` reads 0.694%; that for `Cc1coc2cc3oc(=O)c(Cc4ccccc4)c(C)c3cc12`, 6.78%.

Values taken from publication PMC4336329 (PLoS ONE, 2015).
